Results taken from PubChem BioAssay AID686971 (National Center for Advancing Translational Sciences (NCATS), 2013).
About 7,500 (2.1%) of roughly 360,000 compounds were called active. Inconclusive means that the source gave no clear call. Such entries were picked first, then a sample of the others. Calls follow the shape of the dose curve; as a rule, active = well fitted cell-killing curve with a large enough effect; inconclusive = small, poorly fitted or top-dose-only effect, or effect the other way, or another doubt; inactive = no such curve, though single readings can be large or run the other way. Potencies of inconclusive entries are left out as doubtful fits.

Assay: qHTS for induction of synthetic lethality in tumor cells producing 2HG: qHTS for the HT-1080-IDH1KD cell line;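 as to activity, negative = toxicity: 0% = DMSO wells and -100% = cell-free medium wells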
Settings: HT-1080 IDH1 knockdown viability, ATP luminescence, 48 h; activity, negative = toxicity: at 46.1 µM (top of the series) unless noted
Outline: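 Viability of IDH1-knockdown HT-1080 fibrosarcoma cells was assessed by CellTiter-Glo after 48 h at 37 °C with titrated compound; concentration-effect curves were classified by fit quality and response size.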
Potency is read from the fitted curve at half-maximal effect; tags tell the direction and shape of the fitted curve.

Compound | activity, negative = toxicity | Potency
CCc1c(C)nc(N2CCN(c3ccc(F)cc3)CC2)[nH]c1=O | inactive: 6.65% | –
CCN(CC)S(=O)(=O)c1cc(C(=O)Nc2ccccc2[N+](=O)[O-])ccc1Cl | – | inconclusive [cytotoxic, single point]
O=C(c1ccc(F)cc1)C(CCCCCC(CN1CCOCC1)C(=O)c1ccc(F)cc1)CN1CCOCC1 (configuration not stated) | – | inconclusive [cytotoxic, partial curve]
Cc1ccc(SCC(=O)NC(=O)Nc2ccc3c(c2)OCCO3)cc1C | inactive: -5.43% | –
CCN(CC)CC(=O)Nc1sc2c(c1C(=O)c1ccccc1C)CCC2 | – | inconclusive [cytotoxic, single point]
O=C(NCC1CC1)c1ccccc1Cl | inactive: -0.14% | –
CN(C)c1ccc(CNc2ccc3c(c2)ncn3C)cc1 | – | inconclusive [cytotoxic, single point]
O=C(NC1CCCCCC1)c1cc2c(=O)n3ccccc3nc2s1 | inactive: -25.7% | –
COc1cc2c(NC3CCN(C)CC3)nc(N3CCCN(C)CC3)nc2cc1O | inactive: 9.53% | –
Cc1noc(C)c1CSCC(=O)Nc1nc2ccc(S(C)(=O)=O)cc2s1 | inactive: -5.55% | –
CCCC(=O)Nc1nc2ccc(NC(=O)c3ccc(Br)o3)cc2s1 | inactive: -11% | –
Cc1ccc2c(Cl)cc(Cl)c(O)c2n1 | – | active: 8.2 µM
CCOC(=O)C(=O)N(C)c1c(CC)nc2c(OCc3ccc(OC(F)F)cc3)cccn12 | inactive: 10.5% | –
COC(=O)C1=C(C(=O)OC)[C@@H]2N(Cc3ccccc3)c3ccccc3[C@@]23C[C@@H](C(=O)OC)N(C(=O)NC(C)(C)C)C3=N1 | inactive: 10% | –
CCOC(=O)c1sc(C)c2c1NC(c1ccc(Cl)cc1)NC2=O (configuration not stated) | – | inconclusive [cytotoxic, single point]
COC(C(=O)C(O)C(C)O)C1Cc2cc3cc(OC4CC(OC5CC(O)C(O)C(C)O5)C(O)C(C)O4)c(C)c(O)c3c(O)c2C(=O)C1OC1CC(OC2CC(OC3CC(O)C(OC)C(C)O3)C(O)C(C)O2)C(O)C(C)O1 (configuration not stated) | – | active: 0.0103 µM
CC1Cc2ccccc2N1c1ncnc2c1nnn2Cc1ccccc1Cl (configuration not stated) | inactive: 2.21% | –
CCC(=O)N1N=C(c2ccc(NS(=O)(=O)c3ccc(C)cc3)cc2)CC1c1ccco1 (configuration not stated) | – | inconclusive [cytotoxic, single point]
CC1(C(=O)NS(=O)(=O)C2CC2)CCCN(C(=O)c2cccc(OC(F)(F)F)c2)C1 (configuration not stated) | inactive: 17.9% | –
COc1cccc(CSc2nc3ccccc3cc2C=O)c1 | – | active: 20.6 µM
CCOC(=O)c1sc2nc(C)nc(NCc3ccc(F)cc3)c2c1C | – | active: 20.6 µM
Cc1cc(C)c(C(O)c2ncc(-c3cccc4ccccc34)[nH]2)c(C)c1 (configuration not stated) | – | inconclusive [cytotoxic, single point]
